In the supplement of paper PMC4967469:
A lower IC50 marks a more sensitive line; fits outside the tested doses are given as limits. For AUC the same curve is integrated over the 256-fold range of doses and scaled to a fraction: 1 means no effect, lower means more sensitive. For part of these data: Any top dose called inferred was derived from the fitted curves, not read from the paper. For part of these data: An entry number marks a drug with two screens in the source, which often give different values.

Key:
Experiment in all cases: Viability of human cancer cell lines after 72 h of drug (GDSC screen)
Tretinoin = compound: CC1=C(/C=C/C(C)=C/C=C/C(C)=C/C(=O)O)C(C)(C)CCC1 [Tretinoin]; conditions: top dose 10 µM; top dose inferred
Procedure: (§1)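 Human cancer cell lines in 384-well plates, medium with 10% serum, drug for 72 h over a 256-fold dose range (nine 2-fold or five 4-fold steps up to the top dose). Adherent lines were fixed and stained with the nucleic acid dye Syto60, suspension lines read with resazurin; signal relative to control wells, capped at 0 and 100%. One two-parameter sigmoid per drug and line, fitted in a mixed model over all curves with the slope shared within a line.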

GSK690693 = compound: CCn1c(-c2nonc2N)nc2c(C#CC(C)(C)O)ncc(OC[C@H]3CCCNC3)c21 [GSK690693]; conditions: top dose 10.24 µM; top dose inferred
Procedure: as §1

UNC0638 = compound: COc1cc2c(NC3CCN(C(C)C)CC3)nc(C3CCCCC3)nc2cc1OCCCN1CCCC1 [UNC0638]
Procedure: as §1

SB-505124 = compound: Cc1cccc(-c2[nH]c(C(C)(C)C)nc2-c2ccc3c(c2)OCO3)n1 [SB-505124]; conditions: top dose 10 µM; top dose inferred
Procedure: as §1

BX-795 = compound: O=C(NCCCNc1nc(Nc2cccc(NC(=O)N3CCCC3)c2)ncc1I)c1cccs1 [BX-795]; conditions: top dose 5 µM; top dose inferred
Procedure: as §1

PI-103 = compound: Oc1cccc(-c2nc(N3CCOCC3)c3oc4ncccc4c3n2)c1 [PI-103]; conditions: top dose 10.24 µM
Procedure: as §1

[1] = top dose 20 µM, screen: GDSC drug entry 1236, top dose inferred
[2] = top dose 40 µM, screen: GDSC drug entry 245

| Cell Line | AUC (Tretinoin) | IC50 (Tretinoin) [µM] | AUC (GSK690693) | IC50 (GSK690693) [µM] | AUC (UNC0638; [1]) | IC50 (UNC0638; [1]) [µM] | AUC (UNC0638; [2]) | IC50 (UNC0638; [2]) [µM] | AUC (SB-505124) | IC50 (SB-505124) [µM] | AUC (BX-795) | IC50 (BX-795) [µM] | AUC (PI-103) | IC50 (PI-103) [µM] |
| --- | --- | --- | --- | --- | --- | --- | --- | --- | --- | --- | --- | --- | --- | --- |
| NCI-H1623 (lung adenocarcinoma, adherent) | 0.892 | > 10 | 0.98 | > 10.2 | 0.966 | > 20 | 0.847 | 39.8 | 0.983 | > 10 | 0.965 | > 5 | 0.959 | > 10.2 |
| NCI-H1651 (lung adenocarcinoma, adherent) | 0.97 | > 10 | 0.984 | > 10.2 | 0.979 | > 20 | 0.987 | > 40 | 0.948 | > 10 | 0.941 | > 5 | 0.974 | > 10.2 |
| NCI-H1688 (small cell lung carcinoma, adherent) | 0.976 | > 10 | 0.968 | > 10.2 | 0.799 | 10.7 | 0.626 | 5.78 | 0.981 | > 10 | 0.964 | > 5 | 0.844 | 8.46 |
| NCI-H1693 (lung adenocarcinoma, adherent) | 0.949 | > 10 | 0.976 | > 10.2 | 0.729 | 8.53 | 0.725 | 16.3 | 0.973 | > 10 | 0.909 | > 5 | 0.645 | 2.06 |
| NCI-H1703 (lung adenocarcinoma, adherent) | 0.972 | > 10 | 0.911 | > 10.2 | 0.858 | > 20 | 0.941 | > 40 | 0.967 | > 10 | 0.698 | 1.28 | 0.301 | 0.155 |
| NCI-H1755 (lung adenocarcinoma, adherent) | 0.983 | > 10 | 0.984 | > 10.2 | 0.811 | 12.8 | 0.639 | 6.45 | 0.981 | > 10 | 0.824 | 3.61 | 0.783 | 5.07 |
| NCI-H1781 (lung adenocarcinoma, adherent) | 0.989 | > 10 | 0.981 | > 10.2 | 0.973 | > 20 | 0.922 | > 40 | 0.98 | > 10 | 0.95 | > 5 | 0.989 | > 10.2 |
| NCI-H1792 (lung adenocarcinoma, adherent) | 0.965 | > 10 | 0.986 | > 10.2 | 0.819 | 9.97 | 0.875 | 32.8 | 0.98 | > 10 | 0.911 | > 5 | 0.436 | 0.436 |
| NCI-H1944 (lung adenocarcinoma, adherent) | 0.971 | > 10 | 0.935 | > 10.2 | 0.931 | > 20 | 0.68 | 8.27 | 0.983 | > 10 | 0.927 | > 5 | 0.696 | 2.37 |
| NCI-H1993 (lung adenocarcinoma, adherent) | 0.982 | > 10 | 0.965 | > 10.2 | 0.847 | > 20 | 0.962 | > 40 | 0.939 | > 10 | 0.982 | > 5 | 0.631 | 1.65 |
| NCI-H2009 (lung adenocarcinoma, adherent) | 0.977 | > 10 | 0.987 | > 10.2 | 0.984 | > 20 | 0.897 | > 40 | 0.969 | > 10 | 0.875 | > 5 | 0.983 | > 10.2 |
| NCI-H2087 (lung adenocarcinoma, semi-adherent) | 0.982 | > 10 | 0.986 | > 10.2 | 0.962 | > 20 | 0.769 | 16.2 | 0.984 | > 10 | 0.95 | > 5 | 0.736 | 3.22 |
| NCI-H2110 (non-small cell lung carcinoma, adherent) | 0.966 | > 10 | 0.929 | > 10.2 | 0.944 | > 20 | 0.741 | 12.5 | 0.985 | > 10 | 0.886 | > 5 | 0.682 | 2.09 |
| NCI-H2172 (non-small cell lung carcinoma, adherent) | 0.977 | > 10 | 0.978 | > 10.2 | 0.923 | > 20 | 0.904 | > 40 | 0.977 | > 10 | 0.93 | > 5 | 0.975 | > 10.2 |
| NCI-H2227 (small cell lung carcinoma, semi-adherent) | 0.814 | 6.38 | 0.924 | > 10.2 | 0.812 | 12.5 | 0.725 | 11.9 | 0.971 | > 10 | 0.848 | 4.49 | 0.425 | 0.388 |
| NCI-H2291 (lung adenocarcinoma, adherent) | 0.982 | > 10 | 0.984 | > 10.2 | 0.844 | > 20 | 0.983 | > 40 | 0.982 | > 10 | 0.961 | > 5 | 0.978 | > 10.2 |
| NCI-H2342 (lung adenocarcinoma, adherent) | 0.979 | > 10 | 0.986 | > 10.2 | 0.953 | > 20 | 0.934 | > 40 | 0.984 | > 10 | 0.917 | > 5 | 0.967 | > 10.2 |
| NCI-H2347 (lung adenocarcinoma, adherent) | 0.983 | > 10 | 0.982 | > 10.2 | 0.801 | 12.3 | 0.804 | 25.4 | 0.974 | > 10 | 0.854 | > 5 | 0.588 | 1.18 |
| NCI-H2405 (lung adenocarcinoma, adherent) | 0.985 | > 10 | 0.986 | > 10.2 | 0.983 | > 20 | 0.927 | > 40 | 0.97 | > 10 | 0.854 | 4.65 | 0.858 | 9.94 |
| NCI-H2444 (non-small cell lung carcinoma, adherent) | 0.988 | > 10 | 0.988 | > 10.2 | 0.987 | > 20 | 0.868 | > 40 | 0.987 | > 10 | 0.948 | > 5 | 0.976 | > 10.2 |
| NCI-H2452 (mesothelioma, adherent) | 0.968 | > 10 | 0.984 | > 10.2 | 0.715 | 5.78 | 0.892 | > 40 | 0.976 | > 10 | 0.869 | > 5 | 0.984 | > 10.2 |
| NUGC-4 (stomach, adherent) | 0.985 | > 10 | 0.977 | > 10.2 | 0.797 | 9.41 | 0.673 | 7.61 | 0.968 | > 10 | 0.962 | > 5 | 0.947 | > 10.2 |
| NY (osteosarcoma, adherent) | 0.959 | > 10 | 0.989 | > 10.2 | 0.859 | 16.2 | 0.989 | > 40 | 0.985 | > 10 | 0.865 | 4.33 | 0.989 | > 10.2 |
| OACM5-1 (oesophagus, semi-adherent) | 0.943 | > 10 | 0.381 | 0.287 | 0.958 | > 20 | 0.695 | 9.52 | 0.979 | > 10 | 0.981 | > 5 | 0.196 | 0.0691 |
| OACp4C (oesophagus, adherent) | 0.975 | > 10 | 0.77 | 4.68 | 0.832 | 16.5 | 0.71 | 11.2 | 0.92 | > 10 | 0.8 | 3 | 0.386 | 0.29 |
| OAW-42 (ovary, adherent) | 0.971 | > 10 | 0.878 | > 10.2 | 0.983 | > 20 | 0.876 | > 40 | 0.984 | > 10 | 0.867 | > 5 | 0.728 | 3.04 |
| OC-314 (ovary, adherent) | 0.991 | > 10 | 0.927 | > 10.2 | 0.827 | 9.95 | 0.868 | 28 | 0.974 | > 10 | 0.891 | 4.37 | 0.404 | 0.365 |
| OE19 (oesophagus, adherent) | 0.967 | > 10 | 0.986 | > 10.2 | 0.898 | > 20 | 0.95 | > 40 | 0.982 | > 10 | 0.952 | > 5 | 0.984 | > 10.2 |
| OE21 (oesophagus, adherent) | 0.906 | > 10 | 0.929 | > 10.2 | 0.697 | 5.57 | 0.785 | 24.6 | 0.963 | > 10 | 0.774 | 2.75 | 0.828 | 9.86 |
| OE33 (oesophagus, adherent) | 0.971 | > 10 | 0.975 | > 10.2 | 0.808 | 12.8 | 0.652 | 7.18 | 0.982 | > 10 | 0.936 | > 5 | 0.787 | 5.39 |
